Measurements from ChEMBL document CHEMBL5356990, “Overview of CFTR activators and their recent studies for dry eye disease: a review” (RSC Med Chem, 2023).

Columns and labels:
Assay type in all cases: cell-based
[1] = tested on: Cc1cc(C)cc(/N=C2/NC(=O)/C(=C/c3ccc(O)cc3)S2)c1; assay: (§1) Binding affinity at human CFTR expressed in rat FRT cells assessed as Vmax relative to control; conditions: filed as opener
[2] = tested on: CC(C)(C)c1cc(C(C)(C)C)c(NC(=O)c2c[nH]c3ccccc3c2=O)cc1O; assay: as §1
[3] = tested on: Nc1ccc([N+](=O)[O-])cc1-c1nc2ccccc2n(Cc2ccccc2)c1=O; assay: as §1; conditions: filed as opener
[4] = tested on: CNc1nc(Nc2cccc([N+](=O)[O-])c2)nc(OCC(F)(F)F)n1; assay: as §1; conditions: filed as opener
[5] = tested on: CCOc1ccccc1CC(=O)Nc1nnc(Cc2ccc(OC)c(OC)c2)s1; assay: as §1; conditions: filed as opener
[6] = tested on: CC/N=C1\S/C(=C\c2ccc3c(c2)OCO3)C(=O)N1CC; assay: as §1; conditions: filed as opener
[7] = tested on: O=C(c1cccs1)N1N=C(c2ccccc2)CC1c1ccccc1[N+](=O)[O-]; assay: as §1; conditions: filed as opener

Cystic fibrosis transmembrane conductance regulator (Homo sapiens) (no sequence given)
Vmax [1]: 89%
Vmax [2]: 39%
Vmax [3]: 90%
Vmax [4]: 49%
Vmax [5]: 91%
Vmax [6]: 65%
Vmax [7]: 94%
